This sample is rich in variants without activity.
B1: TPR 5TU (parent)
chain: GGAUCUUCUCGAUCUAACAAAAAAGACAAAUCUGCCACAAAGCUUGAGAGCAUCUUCGGAUGCAGAGGCGGCAGCCUUCGGUGGCGCGAUAGCGCCAACGUUCUCAACUAUGACACGCAAAACGCGUGCUCCGUUGAAUGGAGUUUAUCAUG

Variants of: B1
Test: polymerase ribozyme fitness, log enrichment relative to wild type (log ratio); higher = more active; in vitro selection for triplet polymerase activity
In short: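 Input and output libraries were sequenced on Illumina after a single in vitro selection round, run in triplicate on PCR-built, transcribed mutant libraries of each subunit of a heterodimeric triplet polymerase ribozyme. Selection annealed libraries to a biotinylated primer, the partner subunit and triplets, incubated them frozen at −7 °C, then gel-excised extended constructs for streptavidin-bead capture and RT-PCR. Genotypes with ≥10 input reads and ≥1 read per output were kept. Fitness is the logarithm, taken in base 2, of genotype enrichment divided by wild-type enrichment, using inverse-variance-weighted replicate averages.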

Row | Variant | polymerase ribozyme fitness (log ratio)
1 | A19G C87A A98G | ≤ -4.2
2 | A19G C87G | ≤ -4.2
3 | A19G C87G G92A C149U | ≤ -4.2
4 | A19G C87G G92A U134A | ≤ -4.2
5 | A19G G25C C38U G84U G128A | ≤ -4.2
6 | A19G G25U A47C U78C C96A | ≤ -4.2
7 | A19G G42U G50U A52U C75U G88U G92C G143A | ≤ -4.2
8 | A19G G46U G48C G62A G94U A107G | ≤ -4.2
9 | A19G G48A C54G G81U G94U | ≤ -4.2
10 | A19G G50A C54A G83U C116U C123U | ≤ -4.2
11 | A19G G50A G67A A91U C93A | ≤ -4.2
12 | A19G G50A G83C G86U C96U | ≤ -4.2
13 | A19G G50C U148G | ≤ -4.2
14 | A19G G50U G83A A115C G141C | ≤ -4.2
15 | A19G G83A A91C G94C C96G U134G | ≤ -4.2
16 | A19G G84C A115U A121G | -3.97
17 | A19G G92A U127G U130G | ≤ -4.2
18 | A19G U33C A41C A91U C93A A97C | ≤ -4.2
19 | A19G U33C A49C C54U G81A C87U | ≤ -4.2
20 | A19G U55A | -0.576
21 | A19G U82G G94A C96U A97U G124U | -2.53

Row | Variant | polymerase ribozyme fitness (log ratio)
22 | A19G U90G | ≤ -4.2
23 | A19U A20U C32U G83U C85A G133U | ≤ -4.2
24 | A19U A20U C35U G59C U77C C118U C123U G141A U151G | ≤ -4.2
25 | A19U A20U C54G U56A U77C G88U C95G A97C C125A G126A | ≤ -4.2
26 | A19U A21C A29C G50A C93G C95A C103U U148A | ≤ -4.2
27 | A19U A21G U45G U56A G92U | -1.94
28 | A19U A21U C87A A106G U139C | ≤ -4.2
29 | A19U A22G A39C C79G | ≤ -4.2
30 | A19U A22U C32A | ≤ -4.2
31 | A19U A23C A29G G83C A97U C103G U139C | ≤ -4.2
32 | A19U A23C A40U U109G U144C | ≤ -4.2
33 | A19U A23C U33G A39C C69U C75G A147G | ≤ -4.2
34 | A19U A23G U90G | -3.99
35 | A19U A23U C27A U56A G100A | ≤ -4.2
36 | A19U A24G G42C U134A | ≤ -4.2
37 | A19U A26C A30U C35U A41U G84A U135A | ≤ -4.2
38 | A19U A26C G59A C72G C93A A98U U130A U144G | ≤ -4.2
39 | A19U A26U C35A A91C G152A | ≤ -4.2
40 | A19U A28G C36G G59A C96A | ≤ -4.2
41 | A19U A28U C63U C85U | ≤ -4.2
42 | A19U A28U G67C U82A C87A A122C U127C U145C | ≤ -4.2

Row | Variant | polymerase ribozyme fitness (log ratio)
43 | A19U A29U A39G U44G C85U G143U | ≤ -4.2
44 | A19U A30U G62C G65C C96A | ≤ -4.2
45 | A19U A37C U56C G84C G86A A91C C108A A120C | ≤ -4.2
46 | A19U A37U U44G A66U G92U C96A C123U G124A | ≤ -4.2
47 | A19U A40C G88A A89C | ≤ -4.2
48 | A19U A47C U55G C87U G92U U101C | -2.81
49 | A19U A47G U53G G67C C99U A142C A147C | ≤ -4.2
50 | A19U A49C C69U U77G C79A G84A C99A A113C C114G A142C | ≤ -4.2
51 | A19U A49G G83U A91U C116A G140C | ≤ -4.2
52 | A19U A66C C96U U145G | ≤ -4.2
53 | A19U A73G C87G G141U C149G | ≤ -4.2
54 | A19U C27U C36A G42C G86A G100C C118G | ≤ -4.2
55 | A19U C27U C43U G50A G65U U77A G100A A120C G141A | ≤ -4.2
56 | A19U C32A C105G A147C | ≤ -4.2
57 | A19U C32G U55G U56A G92A U145A C149U | ≤ -4.2
58 | A19U C35U G42U U55G G67A C85G A97C C114G G140U | ≤ -4.2
59 | A19U C36G A37U G71C C85U | ≤ -4.2
60 | A19U C38A A47G G48A U55A G124C C125A U144C | ≤ -4.2
61 | A19U C38A C54U C85A C108A | ≤ -4.2
62 | A19U C38U A64C C69U C79U G92A C123U C129G | ≤ -4.2
63 | A19U C51U C54U G84U G143C | ≤ -4.2

Row | Variant | polymerase ribozyme fitness (log ratio)
64 | A19U C51U G58C C85U A91U C114U C118U | ≤ -4.2
65 | A19U C57A C69A C93G C108G | ≤ -4.2
66 | A19U C69G C72U G84A | -3.03
67 | A19U C69G C85U U134G G152U | ≤ -4.2
68 | A19U C69G C96G U104G | -1.98
69 | A19U C79A | ≤ -4.2
70 | A19U C85A A113U | -3.44
71 | A19U C85G | -2.18
72 | A19U C87U A121C A147U | 0.743
73 | A19U C96G A122U | -0.445
74 | A19U C105G | -1.81
75 | A19U C123U | -0.609
76 | A19U G42A G86A | ≤ -4.2
77 | A19U G48A G88U G92C C125U A138U G143C | ≤ -4.2
78 | A19U G48C C75U U77C C93G A122U A150C | ≤ -4.2
79 | A19U G58U G65A G92A | ≤ -4.2
80 | A19U G59C A89U G92C A121G | -2.25
81 | A19U G59C C85A C95A A115G U151A | ≤ -4.2
82 | A19U G84C | -2.08
83 | A19U U31A G58C C63U G70C C95U C131G G152U | ≤ -4.2
